# Laboratory results published in article PMC5762908 (Scientific Reports, 2018).
# Tests used:
# [1] = test system: HCT116 cells; experiment: Mitochondrial transmembrane potential, rhodamine 123, flow cytometry; assay type: cell-based, human; conditions: HCT116, rhodamine 123, 24 h; 5-FU at 4 μM
# [2] = test system: HSC-3 (human oral squamous cell carcinoma)
# [3] = test system: MCF7 (human breast carcinoma)
# [4] = test system: HCT116 cells; conditions: HCT116, trypan blue
# Description: TBE assay was used to confime the cytotoxic effect of the complex tested. The number of viable cells and non-viable cells (take up trypan blue) were counted. Briefly, 90 μL was removed from the cell suspension and 10 μL of trypan blue (0.4%) was added. Cell counting was performed using a light microscope with a hemocytometer filled with an aliquot of the homogenized cell suspension.
# [5] = test system: SCC-9 (human oral squamous cell carcinoma)
# [6] = test system: HCT116 cells; conditions: for DNA content (%) G0/G1 / DNA content (%) G2/M / DNA content (%) S / DNA content (%) Sub-G0/G1: HCT116 cells
# [7] = test system: HepG2 (human hepatocellular carcinoma)
# [8] = test system: HL-60 (human promyelocytic leukemia)
# [9] = test system: HCT116 cells; experiment: Cellular reactive oxygen species levels, DCF-DA, flow cytometry; assay type: cell-based, human; conditions: 1 or 3 h incubation, data not shown
# Description: The levels of ROS were measured according to previously described[31] using DCF-DA (Sigma-Aldrich Co.). In brief, cells were treated with the complex for 1 and 3 h. Then, the cells were collected, washed with saline and re-suspended in FACS tubes with saline containing 5 μM DCF-DA for 30 min. Finally, the cells were washed with saline and the cell fluorescence was determined by flow cytometry, as described above.
# [10] = test system: cancer multicellular spheroids formed from HCT116 cells; experiment: 3D multicellular spheroids culture, alamar blue assay; assay type: cell-based, human
# Description: Cell viability was quantified using the alamar blue assay, according to Ahmed et al.[28]. Cells were inserted in 96-well plates for all experiments (7 × 10^4 cells/mL for adherent cells or 3 × 10^5 cells/mL for suspended cells in 100 μL of medium). After 24 h, the complex was dissolved in dimethyl sulfoxide (DMSO, Sigma-Aldrich co.) and added to each well and incubated for 72 h. […] Four (for cell lines) or 24 h (for PBMCs) before the end of incubation, 20 μL of a stock solution (0.312 mg/mL) of the alamar blue (resazurin, Sigma-Aldrich Co.) were added to each well. Absorbance at 570 nm and 600 nm was measured using the SpectraMax 190 Microplate Reader (Molecular Devices, Sunnyvale, CA, EUA), and the drug effect was quantified as the percentage of control absorbance.
# Briefly, 100 μL of a solution of cells (0.5 × 10^6 cells/mL) were inserted in 96-well plate with a cell-repellent surface (Greiner Bio-One; Kremsmünster, Austria) and cultured in complete medium plus 3% matrigel (BD Biosciences; San Jose, CA, EUA). Spheroids with stable structures had formed after three days. Then, the spheroids were exposed to a range of drug concentrations for 72 h, after which the cell viability was quantified by alamar blue assay as described above.
# [11] = test system: K-562 (human chronic myelogenous leukemia)
# [12] = test system: HCT116 cells; experiment: Annexin V-FITC/PI staining assay, flow cytometry; assay type: cell-based, human
# Description: For apoptosis detection, we used the FITC Annexin V Apoptosis Detection Kit I (BD Biosciences), and the analysis was performed according to the manufacturer’s instructions. The cell fluorescence was determined by flow cytometry as described above. The protection assays using the caspase-3 inhibitor (Z-DEVD-FMK, BD Biosciences) and the antioxidant NAC (Sigma-Aldrich Co.) were performed. In brief, the cells were pre-treated for 2 h with 50 µM Z-DEVD-FMK and for 1 h with 5 mM NAC, followed by incubation with 4 µM of the complex for 48 h. The cells were then trypsinized and the FITC Annexin V Apoptosis Detection assay was conducted as described above.
# [13] = test system: HCT116 (human colon carcinoma)
# [14] = test system: caspase-3 in HCT116 cells; experiment: Caspase-3 activation assay, colorimetric, DEVD-pNA substrate; assay type: cell-based, human; conditions: HCT116, 48 h; 5-FU at 4 μM
substance,measurement,setting,value
[Ru(5-FU)(PPh3)2(bipy)]PF6 [RU/5-FU],Mitochondrial membrane potential (depolarization),[1],induced mitochondrial depolarization
same,more potent than 5-FU (fold),"[2]; HSC3, IC50 compared with 5-FU",10 fold
same,Selectivity index (SI),[2]; SI = IC50[MRC-5]/IC50[HSC-3],5.6
same,Selectivity index (SI),[2]; SI = IC50[PBMC]/IC50[HSC-3],3.4
same,IC50,"[2]; read-out: IC50 in µM, HSC3, alamar blue assay, 72 h incubation, 2D culture",1.7 µM
same,more potent than 5-FU (fold),"[3]; MCF7, IC50 compared with 5-FU",2 fold
same,Selectivity index (SI),[3]; SI = IC50[MRC-5]/IC50[MCF7],1.3
same,Selectivity index (SI),[3]; SI = IC50[PBMC]/IC50[MCF7],0.8
same,IC50,"[3]; read-out: IC50 in µM, MCF7, alamar blue assay, 72 h incubation, 2D culture",7.6 µM
same,Reduction of the number of viable cells,"[4]; 1 μM, 24 h",40.0%
same,Reduction of the number of viable cells,"[4]; 1 μM, 48 h",72.4%
same,Reduction of the number of viable cells,"[4]; 2 μM, 24 h",60.0%
same,Reduction of the number of viable cells,"[4]; 2 μM, 48 h",81.7%
same,Reduction of the number of viable cells,"[4]; 4 μM, 24 h",76.1%
same,Reduction of the number of viable cells,"[4]; 4 μM, 48 h",90.2%
same,Number of non-viable cells,[4]; 24 and 48 h,No significant (p > 0.05) increase
same,more potent than 5-FU (fold),"[5]; SCC9, IC50 compared with 5-FU",55 fold
same,Selectivity index (SI),[5]; SI = IC50[MRC-5]/IC50[SCC-9],4.1
same,Selectivity index (SI),[5]; SI = IC50[PBMC]/IC50[SCC-9],2.5
same,IC50,"[5]; read-out: IC50 in µM, SCC9, alamar blue assay, 72 h incubation, 2D culture",2.3 µM
same,"Cell cycle phase accumulation / arrest, in words",[6],No accumulation of cells in any phase of the cell cycle
same,"Internucleosomal DNA fragmentation (sub-G0/G1), in words",[6],significant increase
same,DNA content (%) G0/G1,"[6]; 24 h incubation, 1 µM",43.6 ± 2.9%
same,DNA content (%) G2/M,"[6]; 24 h incubation, 1 µM",32.1 ± 1.7%
same,DNA content (%) S,"[6]; 24 h incubation, 1 µM",8.8 ± 2.3%
same,DNA content (%) Sub-G0/G1,"[6]; 24 h incubation, 1 µM",8.8 ± 1.8%
same,DNA content (%) G0/G1,"[6]; 24 h incubation, 2 µM",35.3 ± 2.0%
same,DNA content (%) G2/M,"[6]; 24 h incubation, 2 µM",28.0 ± 3.0%
same,DNA content (%) S,"[6]; 24 h incubation, 2 µM",14.5 ± 2.7%
same,DNA content (%) Sub-G0/G1,"[6]; 24 h incubation, 2 µM",15.4 ± 3.2%
same,DNA content (%) G0/G1,"[6]; 24 h incubation, 4 µM",19.9 ± 3.6 %
same,DNA content (%) G2/M,"[6]; 24 h incubation, 4 µM",27.0 ± 2.5%
same,DNA content (%) S,"[6]; 24 h incubation, 4 µM",15.1 ± 2.3%
same,DNA content (%) Sub-G0/G1,"[6]; 24 h incubation, 4 µM",25.9 ± 5.1 %
same,DNA content (%) G0/G1,"[6]; 48 h incubation, 1 µM",34.5 ± 2.9%
same,DNA content (%) G2/M,"[6]; 48 h incubation, 1 µM",18.8 ± 2.4%
same,DNA content (%) S,"[6]; 48 h incubation, 1 µM",14.1 ± 1.6%
same,DNA content (%) Sub-G0/G1,"[6]; 48 h incubation, 1 µM",21.8 ± 4.7 %
same,DNA content (%) G0/G1,"[6]; 48 h incubation, 2 µM",31.8 ± 2.3 %
same,DNA content (%) G2/M,"[6]; 48 h incubation, 2 µM",21.2 ± 2.8%
same,DNA content (%) S,"[6]; 48 h incubation, 2 µM",9.3 ± 1.7%
same,DNA content (%) Sub-G0/G1,"[6]; 48 h incubation, 2 µM",28.9 ± 4.7 %
same,DNA content (%) G0/G1,"[6]; 48 h incubation, 4 µM",15.1 ± 0.9 %
same,DNA content (%) G2/M,"[6]; 48 h incubation, 4 µM",17.1 ± 2.2%
same,DNA content (%) S,"[6]; 48 h incubation, 4 µM",6.9 ± 1.3%
same,DNA content (%) Sub-G0/G1,"[6]; 48 h incubation, 4 µM",55.3 ± 2.7 %
same,Selectivity index (SI),[7]; SI = IC50[MRC-5]/IC50[HepG2],3.4
same,Selectivity index (SI),[7]; SI = IC50[PBMC]/IC50[HepG2],2.1
same,IC50,"[7]; read-out: IC50 in µM, HepG2, alamar blue assay, 72 h incubation, 2D culture",2.8 µM
same,more potent than 5-FU (fold),"[8]; HL-60, IC50 compared with 5-FU",5 fold
same,Selectivity index (SI),[8]; SI = IC50[MRC-5]/IC50[HL-60],3.7
same,Selectivity index (SI),[8]; SI = IC50[PBMC]/IC50[HL-60],2.2
same,IC50,"[8]; read-out: IC50 in µM, HL-60, alamar blue assay, 72 h incubation, 2D culture",2.6 µM
same,Intracellular ROS levels,[9],did not induce significant increase
same,Effect on spheroid cell aggregations (light microscopy),[10]; 3D HCT116 spheroids,disrupted these cell aggregations
same,more potent than 5-FU (fold),"[10]; 3D HCT116 spheroids, IC50 compared with 5-FU",≥ 113 fold
same,IC50,"[10]; 3D multicellular spheroids, alamar blue assay, 72 h",1.7 µM
same,more potent than 5-FU (fold),"[11]; K562, IC50 compared with 5-FU",10 fold
same,Selectivity index (SI),[11]; SI = IC50[MRC-5]/IC50[K-562],4.8
same,Selectivity index (SI),[11]; SI = IC50[PBMC]/IC50[K-562],2.9
same,IC50,"[11]; read-out: IC50 in µM, K562, alamar blue assay, 72 h incubation, 2D culture",2 µM
same,Apoptotic cells after pre-treatment with antioxidant NAC,"[12]; HCT116, 1 h 5 mM NAC, then 4 µM complex for 48 h, data not shown",did not prevent the increase of apoptotic cells
same,Apoptotic cells after pre-incubation with caspase-3 inhibitor Z-DEVD-FMK,"[12]; HCT116, 2 h 50 µM Z-DEVD-FMK, then 4 μM RU/5-FU for 48 h",prevented the increase of apoptotic cells
same,Necrotic cells,"[12]; HCT116, annexin V-FITC/PI",No significant increase
same,Early and late apoptotic cells,"[12]; HCT116, annexin V-FITC/PI, 24 and 48 h, 5-FU at 4 μM",increasing in early and late apoptotic cells
same,more potent than 5-FU (fold),"[13]; HCT116, IC50 compared with 5-FU",3 fold
same,Selectivity index (SI),[13]; SI = IC50[MRC-5]/IC50[HCT116],6.3
same,Selectivity index (SI),[13]; SI = IC50[PBMC]/IC50[HCT116],3.8
same,IC50,"[13]; read-out: IC50 in µM, HCT116, alamar blue assay, 72 h incubation, 2D culture",1.5 µM
same,Caspase-3 activation,[14],significant increase

# Read-outs that look alike come from different tables or passages of the source.
